# The campaign covered roughly 220,000 compounds. About 2,300 (1%) were called active. The shares of active, inactive and inconclusive entries below differ from those in the screen. Calls follow the shape of the dose curve; as a rule, active = well fitted inhibition curve with a large enough effect; inconclusive = small, poorly fitted or top-dose-only effect, or effect the other way; inactive = no such curve, though single readings can be large or run the other way. Potencies of inconclusive entries are left out as doubtful fits.
# Biological target: Neuropeptide S receptor (Homo sapiens) (UniProt Q6W5P4)
# Assay: qHTS Assay for Antagonists of the Neuropeptide S Receptor: cAMP Signal Transduction; also: nearly all actives have a fitted effect of over 50% in size
# Conditions: CHO-NPSR cells, cAMP TR-FRET, antagonist mode; activity change, negative = inhibition: at 38.3 µM (top of the series) unless noted
# % is scaled to controls: 0 for no effect and ±100 for the full control effect; potency is read from the fitted curve at half-maximal effect; tags tell the direction and shape of the fitted curve.
# Chain of UniProt Q6W5P4 (Q6W5P4 whole entry, looked up): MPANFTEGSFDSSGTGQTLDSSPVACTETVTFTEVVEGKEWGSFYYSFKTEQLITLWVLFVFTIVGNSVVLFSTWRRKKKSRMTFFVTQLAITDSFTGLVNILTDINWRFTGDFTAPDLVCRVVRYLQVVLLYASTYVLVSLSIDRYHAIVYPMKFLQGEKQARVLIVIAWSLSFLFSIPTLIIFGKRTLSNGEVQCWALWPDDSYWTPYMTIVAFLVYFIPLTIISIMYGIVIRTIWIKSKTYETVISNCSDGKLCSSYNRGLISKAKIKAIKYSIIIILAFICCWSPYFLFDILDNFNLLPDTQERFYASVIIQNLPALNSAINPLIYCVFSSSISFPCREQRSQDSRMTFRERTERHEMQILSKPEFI
SMILES,Potency,"activity change, negative = inhibition"
Cc1ccc(-c2noc(C3CCCN(C(=O)c4c(F)cccc4F)C3)n2)cc1 (stereo unspecified),"inconclusive [inhibitor, single point]",–
COc1cccc(/C=N/NC(=O)Cn2cnc3c2c(=O)n(C)c(=O)n3C)c1,–,inactive: -22.6%
COc1ccc(C(C(O)C(=O)c2c[nH]c3ccccc23)N2CCN(c3ccccc3)CC2)cc1 (stereo unspecified),"inconclusive [inhibitor, partial curve]",–
CCn1c(=O)c([N+](=O)[O-])c(NCc2ccc3c(c2)OCO3)c2ccccc21,"inconclusive [inhibitor, single point]",–
Cc1ccc(S(=O)(=O)c2c(C)cc(C)nc2Oc2cccc(C)c2C)cc1,"inconclusive [inhibitor, single point]",–
CCOc1ccc(OCc2cccc(C(=O)N3CCOCC3)c2)cc1,"inconclusive [inhibitor, single point]",–
Brc1ccc(-c2ccc(/C=N/Nc3nc(N4CCOCC4)nc(N4CCOCC4)n3)o2)cc1,"inconclusive [inhibitor, single point]",–
O=S(=O)(c1ccccc1)c1cnn(-c2ccccc2)c1-c1ccc(Cl)cc1,"inconclusive [inhibitor, single point]",–
COCCSc1ccccc1C(=O)NCC1CCCO1 (stereo unspecified),"inconclusive [inhibitor, single point]",–
CC(=O)CCc1oc2ccc(C)cc2c1-c1ccccc1,–,inactive: -13.6%
N#CC1=C(N)Oc2n[nH]c(-c3cccs3)c2C1C1CCCCC1 (stereo unspecified),"inconclusive [inhibitor, single point]",–
COc1ccc(-n2c(C)cc(C(=O)NC3CCCCC3)c2C)cc1,"inconclusive [inhibitor, single point]",–
COc1ccc(C2C(C(C)=O)=C(C)N=c3s/c(=C\c4cc(C)n(C)c4C)c(=O)n32)c(OC)c1 (stereo unspecified),"inconclusive [inhibitor, single point]",–
Cc1cccc(CSc2nc(N)c(C#N)c(-c3cccs3)c2C#N)c1,"inconclusive [inhibitor, single point]",–
Cc1cccc(C)c1-n1nnnc1C1(Nc2ccccc2)CCCCC1,"inconclusive [inhibitor, single point]",–
Brc1ccc2ncnc(Nc3cccc4ccccc34)c2c1,"inconclusive [inhibitor, partial curve]",–
CCC(CC)C(=O)Nc1nc(-c2ccc3c(c2)CCN3C(=O)C2CC2)c(C)s1,"inconclusive [inhibitor, partial curve]",–
CCC(C)(C)n1nnnc1C(c1ccc(O)c(OC)c1)N1CCN(c2nc3ccccc3s2)CC1 (stereo unspecified),"inconclusive [inhibitor, partial curve, poor fit]",–
COc1ccc(N2C(=O)c3ccccc3NC2c2ccc(OC)c(Cn3nnc4ccccc43)c2)cc1 (stereo unspecified),"inconclusive [inhibitor, partial curve, poor fit]",–
O=c1c2ccccc2[nH]c(=S)n1-c1cccc(S(=O)(=O)N2CCCC2)c1,"inconclusive [inhibitor, single point]",–
CCCCCc1cc(=O)oc2c(C(CCN3CCCC(C)C3)c3cc(OC)c(OC)c(OC)c3)c(OC)cc(OC)c12 (stereo unspecified),active: 6.31 µM,–

SMILES,Potency,"activity change, negative = inhibition"
O=C(CC1=NCCNC(c2ccccc2)C1)c1ccccc1O (stereo unspecified),"inconclusive [inhibitor, full curve, poor fit]",–
CCN(CC)C(=O)Oc1ccc2c(=O)c(-c3ccc(OC)cc3)c(C)oc2c1,"inconclusive [inhibitor, single point]",–
COCCCN1C(=O)C(=O)/C(=C(/O)c2ccc(OC(C)C)cc2)C1c1cccnc1 (stereo unspecified),"inconclusive [activator, single point]",–
CCc1c(C)sc(NC(=O)C2CCCO2)c1C#N (stereo unspecified),–,inactive: 7.92% [at 46.1 µM]
Cc1ccc(NC(=O)C2(c3ccc([N+](=O)[O-])cc3)CCCC2)cc1,"inconclusive [inhibitor, single point]",–
S=c1nc(SCc2ccccc2)[nH]c2ccccc12,active: 10 µM,–
CCc1ccc(CN(C(=O)c2cc3ccccc3oc2=O)C2CCS(=O)(=O)C2)cc1 (stereo unspecified),"inconclusive [inhibitor, full curve, poor fit]",–
O=C(NNC(=S)NC1CCCCC1)c1sc2ccccc2c1Cl,–,inactive: -19.6%
Cc1cc(C)c2c(CN3CCN(Cc4ccc5c(c4)OCO5)CC3)cc(=O)oc2c1C,"inconclusive [inhibitor, single point]",–
C=C(C)CN(CC)c1nc(N)c2c(N)nc3c(c2c1C#N)CC(=O)N3C12CC3CC(CC(C3)C1)C2,active: 5.01 µM,–
CCCc1cc(=O)[nH]c(SCC(=O)CSc2nc(CCC)cc(=O)[nH]2)n1,"inconclusive [inhibitor, full curve, poor fit]",–
COc1ccc(OC)c(NC(=O)CSc2nnc(C3CCCCC3)n2-c2ccccc2)c1,"inconclusive [inhibitor, single point]",–
Cc1[nH]c2ccccc2c1C(=O)COC(=O)C1CC(=O)N(Cc2ccco2)C1 (stereo unspecified),–,inactive: -1.8% [at 46.1 µM]
Nn1c(SCc2ccccc2)nnc1C1CCCCC1,"inconclusive [activator, single point]",–
CCOC(=O)C1=C(O)/C(=C/c2cc(OC)c(OC)c(OC)c2)N=C1C,"inconclusive [inhibitor, partial curve]",–
CC(NC(=O)Cc1ccsc1)c1ccc(S(N)(=O)=O)cc1 (stereo unspecified),–,inactive: 4.34% [at 46.1 µM]
CC1=NN(c2cccc(C(=O)O)c2)C(=O)/C1=C\C=C\c1ccco1,"inconclusive [inhibitor, single point]",–
FC(F)(F)c1cc(CCN2C(=S)NC[C@@H]2Cc2ccccc2)cc(C(F)(F)F)c1,"inconclusive [activator, single point]",–
COc1cc(N=Nc2ccccc2C(=O)O)ccc1O,"inconclusive [activator, single point]",–
CCNc1nc(NCC)nc(N/N=C/c2ccc(N(C)C)cc2)n1,–,inactive: -35.7%

# Reference: PubChem BioAssay AID1461 (National Center for Advancing Translational Sciences (NCATS), 2008)
